Assay results reported in paper PMC6042961.
These are yes or no findings as the source states them, for the method shown. In cells and extracts the contact can be indirect. Some entries that bind do so weakly or less than the wild type. Sequences can lack the tags named with a protein.

Columns and labels:
Assay in all cases: co-IP; lysates in 1% Triton X-100, 150 mM NaCl, 50 mM Tris-HCl pH 7.5; anti-HA or anti-V5 magnetic beads 1 hr at 4°C; wash with 300 mM NaCl; western blot; HEK293T cells (wild type, ADAM17 KO, FRMD8 KO, or iRhom1/2 DKO reconstituted with iRhom2^WT-3xHA; with or without 200 nM PMA for 30 min)
[1] = target: T1, human iRhom1-3xHA (human) (UniProt Q96CC6)
T1 sequence: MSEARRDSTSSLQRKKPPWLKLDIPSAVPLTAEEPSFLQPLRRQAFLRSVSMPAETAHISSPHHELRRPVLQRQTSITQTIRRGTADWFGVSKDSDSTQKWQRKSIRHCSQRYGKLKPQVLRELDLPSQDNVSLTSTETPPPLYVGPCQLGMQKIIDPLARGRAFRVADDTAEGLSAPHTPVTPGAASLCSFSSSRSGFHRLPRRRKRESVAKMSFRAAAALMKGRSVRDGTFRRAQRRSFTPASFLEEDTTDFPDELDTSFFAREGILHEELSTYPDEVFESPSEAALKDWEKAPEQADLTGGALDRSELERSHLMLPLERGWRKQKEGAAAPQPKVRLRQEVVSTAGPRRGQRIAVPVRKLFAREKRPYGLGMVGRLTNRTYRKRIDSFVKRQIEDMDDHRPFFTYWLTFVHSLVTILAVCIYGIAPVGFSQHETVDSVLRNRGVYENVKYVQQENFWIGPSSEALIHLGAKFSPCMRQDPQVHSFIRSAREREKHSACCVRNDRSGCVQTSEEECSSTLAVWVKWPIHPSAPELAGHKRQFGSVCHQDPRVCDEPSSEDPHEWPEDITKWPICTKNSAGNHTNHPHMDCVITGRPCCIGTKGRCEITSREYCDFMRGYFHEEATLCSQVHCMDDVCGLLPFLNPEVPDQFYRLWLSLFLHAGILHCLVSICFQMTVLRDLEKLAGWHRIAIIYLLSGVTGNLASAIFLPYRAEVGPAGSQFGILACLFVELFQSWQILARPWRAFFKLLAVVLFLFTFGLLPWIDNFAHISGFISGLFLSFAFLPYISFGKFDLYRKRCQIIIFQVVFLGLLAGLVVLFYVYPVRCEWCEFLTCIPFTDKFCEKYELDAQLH

[2] = target: T2, mouse iRhom2^WT-3xHA (mouse) (UniProt Q80WQ6)
T2 sequence: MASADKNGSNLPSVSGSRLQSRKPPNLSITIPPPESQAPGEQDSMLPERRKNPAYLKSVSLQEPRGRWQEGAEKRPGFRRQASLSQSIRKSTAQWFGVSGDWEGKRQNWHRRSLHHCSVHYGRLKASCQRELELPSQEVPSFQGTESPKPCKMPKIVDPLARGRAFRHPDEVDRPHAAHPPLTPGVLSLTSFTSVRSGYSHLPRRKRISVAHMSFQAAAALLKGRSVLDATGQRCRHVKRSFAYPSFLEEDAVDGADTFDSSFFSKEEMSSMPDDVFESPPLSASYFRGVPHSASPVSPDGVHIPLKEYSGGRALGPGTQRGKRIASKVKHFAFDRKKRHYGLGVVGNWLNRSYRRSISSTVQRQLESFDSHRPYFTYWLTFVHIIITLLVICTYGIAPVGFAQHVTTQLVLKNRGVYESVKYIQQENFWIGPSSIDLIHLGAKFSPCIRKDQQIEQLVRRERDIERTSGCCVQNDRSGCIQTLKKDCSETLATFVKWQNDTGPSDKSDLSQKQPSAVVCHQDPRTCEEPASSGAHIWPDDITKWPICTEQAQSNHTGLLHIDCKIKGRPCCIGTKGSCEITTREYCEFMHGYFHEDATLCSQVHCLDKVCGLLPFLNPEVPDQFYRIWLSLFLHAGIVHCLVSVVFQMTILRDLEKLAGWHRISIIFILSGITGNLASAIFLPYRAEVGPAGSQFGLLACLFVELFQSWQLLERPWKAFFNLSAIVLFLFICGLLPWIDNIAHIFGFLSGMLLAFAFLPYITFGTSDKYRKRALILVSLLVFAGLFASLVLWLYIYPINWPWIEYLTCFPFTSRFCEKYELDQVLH

[3] = target: T3, human iRhom2-3xHA (human) (UniProt Q6PJF5)
T3 sequence: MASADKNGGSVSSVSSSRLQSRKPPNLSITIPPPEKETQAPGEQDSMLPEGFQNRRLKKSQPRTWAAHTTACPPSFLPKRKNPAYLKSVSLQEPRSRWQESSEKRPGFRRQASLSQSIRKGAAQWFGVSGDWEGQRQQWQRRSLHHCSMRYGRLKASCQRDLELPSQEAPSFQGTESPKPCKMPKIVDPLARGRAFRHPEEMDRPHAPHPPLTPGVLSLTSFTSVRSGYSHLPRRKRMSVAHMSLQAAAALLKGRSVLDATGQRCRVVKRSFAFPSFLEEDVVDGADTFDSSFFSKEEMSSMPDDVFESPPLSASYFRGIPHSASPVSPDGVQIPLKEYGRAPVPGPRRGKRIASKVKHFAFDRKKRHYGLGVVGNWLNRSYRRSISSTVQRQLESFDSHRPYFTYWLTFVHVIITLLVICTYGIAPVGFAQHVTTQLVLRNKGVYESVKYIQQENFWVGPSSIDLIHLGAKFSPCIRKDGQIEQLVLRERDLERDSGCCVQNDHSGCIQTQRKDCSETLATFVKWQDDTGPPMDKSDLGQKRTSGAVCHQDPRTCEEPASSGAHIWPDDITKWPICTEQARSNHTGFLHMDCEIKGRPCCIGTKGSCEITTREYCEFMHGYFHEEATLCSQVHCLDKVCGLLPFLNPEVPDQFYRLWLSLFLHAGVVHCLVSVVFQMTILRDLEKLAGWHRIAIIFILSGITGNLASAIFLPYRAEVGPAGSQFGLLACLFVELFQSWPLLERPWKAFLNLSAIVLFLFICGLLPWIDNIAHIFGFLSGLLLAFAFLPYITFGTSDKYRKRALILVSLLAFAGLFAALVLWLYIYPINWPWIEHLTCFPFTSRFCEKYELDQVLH

Measured: binding

B1: human FRMD8-V5 (protein, UniProt Q9BZ67-1 1-464)
chain: MDGTEGSAGQPGPAERSHRSSVSSVGARAADVLVYLADDTVVPLAVENLPSLSAHELHRAVREVLQLPDIALDVFALWLVSPLLEVQLKPKHQPYKLGRQWPELLLRFTSAPDDDVAMDEPFLQFRRNVFFPKRRELQIHDEEVLRLLYEEAKGNVLAARYPCDVEDCEALGALVCRVQLGPYQPGRPAACDLREKLDSFLPAHLCKRGQSLFAALRGRGARAGPGEQGLLNAYRQVQEVSSDGGCEAALGTHYRAYLLKCHELPFYGCAFFHGEVDKPAQGFLHRGGRKPVSVAISLEGVHVIDSREKHVLLGLRFQELSWDHTSPEEEEPILWLEFDGDSEGTPVNKLLKIYSKQAELMSSLIEYCIELSQAAEPAGPQDSATGSPSDPSSSLAPVQRPKLRRQGSVVSSRIQHLSTIDYVEDGKGIRRVKPKRTTSFFSRQLSLGQGSYTVVQPGDSLEQG
binds: [1] | [2] | [3]
